Screen size: about 280,000 compounds; about 1,100 (0.39%) were called active. Inconclusive results, whose numbers are uncertain, are shown with a selection of clear calls. Calls come from the whole dose curve; as a rule, active = well fitted inhibition curve with a large enough effect; inconclusive = small, poorly fitted or top-dose-only effect, or effect the other way; inactive = flat fitted curve, though single readings scatter. No potency is given beside an inconclusive call; the fits are too rough.
These compounds were tested against Microtubule-associated protein tau (Homo sapiens) (UniProt P10636) (assay: qHTS for Inhibitors of Tau Fibril Formation, Fluorescence Polarization). Conditions: K18 P301L tau heparin fibrillization, Alexa594 FP, 6 h; series mostly up to 57.7 µM; activity, negative = inhibition: at the top concentration.
UniProt P10636, sequence (P10636 whole entry, looked up): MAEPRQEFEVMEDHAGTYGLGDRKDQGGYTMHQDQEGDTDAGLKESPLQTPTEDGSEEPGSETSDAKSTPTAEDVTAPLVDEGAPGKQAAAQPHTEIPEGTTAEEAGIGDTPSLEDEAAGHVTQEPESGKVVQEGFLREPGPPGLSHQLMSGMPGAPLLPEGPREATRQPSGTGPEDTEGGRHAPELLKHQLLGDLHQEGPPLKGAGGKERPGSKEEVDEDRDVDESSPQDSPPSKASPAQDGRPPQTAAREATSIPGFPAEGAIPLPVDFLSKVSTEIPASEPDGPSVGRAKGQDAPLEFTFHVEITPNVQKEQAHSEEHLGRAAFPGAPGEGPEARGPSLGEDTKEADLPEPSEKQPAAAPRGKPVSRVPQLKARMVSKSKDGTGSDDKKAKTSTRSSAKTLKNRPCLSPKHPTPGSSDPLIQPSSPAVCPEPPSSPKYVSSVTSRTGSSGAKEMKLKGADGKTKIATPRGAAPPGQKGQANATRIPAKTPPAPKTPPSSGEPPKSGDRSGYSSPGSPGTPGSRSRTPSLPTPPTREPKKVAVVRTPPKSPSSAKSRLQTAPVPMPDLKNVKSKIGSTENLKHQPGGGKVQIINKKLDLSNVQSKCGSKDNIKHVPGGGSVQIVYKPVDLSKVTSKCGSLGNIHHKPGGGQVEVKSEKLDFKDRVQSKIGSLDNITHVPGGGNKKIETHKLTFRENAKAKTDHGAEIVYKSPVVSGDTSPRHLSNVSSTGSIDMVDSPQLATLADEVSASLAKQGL
Summary of the method: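 FP of Alexa 594-tau after heparin (20 uM) induction. Substrate: human K18 P301L, 15 uM unlabeled, 0.24 uM labeled. Buffer 100 mM sodium acetate pH 7. 6 hr, 37 C.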
For `COC(=O)CN1C(=S)N(c2ccc(F)cc2)C(=O)C1CC(=O)Nc1ccc(F)cc1` (stereo not given), the Potency was inconclusive [inhibitor, partial curve]. In the case of `S=c1[nH]nc(-c2cc(-c3ccccc3)n[nH]2)n1/N=C/C(Br)=C/c1ccccc1`, the Potency is reported as inconclusive [inhibitor, partial curve, poor fit]. In the case of `Cc1ccc(S(=O)(=O)c2nnn3c2nc(NCc2cccs2)c2sccc23)cc1`, the Potency is reported as inconclusive [inhibitor, partial curve]. In the case of `c1cncc(-c2nc(-c3ccco3)cs2)c1`, the Potency is reported as inconclusive [inhibitor, partial curve]. In the case of `COc1cccc(NC(=O)Cn2cc(S(=O)(=O)Cc3ccccc3F)c3ccccc32)c1`, the Potency is reported as inconclusive [inhibitor, partial curve]. For `COC(=O)c1cc(NC(=O)c2cc3sccc3n2Cc2ccc(Cl)cc2)cc(C(=O)OC)c1`, the Potency was inconclusive [inhibitor, partial curve]. With `COc1cc(Nc2nc(SCc3ccccc3Cl)nc3ccccc23)cc(OC)c1` the Potency was active: 11.2 µM. In the case of `CC(=O)c1nnn(-c2ccc([N+](=O)[O-])cc2C)c1C`, the “activity, negative = inhibition” value is reported as inactive: 6.02%. With `COc1ccc(C(=O)/C=C/c2cn(CC(O)CN3CCc4ccccc43)c3ccccc23)cc1` (stereo not given) the Potency was inconclusive [activator, single point]. `O=C(O[C@@H]1OC2COC(=O)c3cc(O)c(O)c(O)c3-c3c(cc(O)c(O)c3O)C(=O)O[C@@H]([C@H]1O)[C@@H]2O)c1cc(O)c(O)c(O)c1` was tested, and the Potency was inconclusive [inhibitor, partial curve]. With `O=C(c1ccc2c(=O)n(Cc3ccc4c(c3)OCO4)c(=S)[nH]c2c1)N1CCCCC1` the “activity, negative = inhibition” value was inactive: 1.54%. With `CCOc1ccc2nc(SCC(=O)NC(=O)NCc3ccco3)sc2c1` the “activity, negative = inhibition” value was inactive: -4.44%. With `CCOc1ccc(N2C(=O)c3[nH]nc(-c4ccc(OC)cc4)c3C2c2cccs2)cc1` (stereo not given) the Potency was inconclusive [inhibitor, partial curve]. In the case of `CC(C)(C)c1ccc(CN2C(=O)CSC2=O)cc1`, the “activity, negative = inhibition” value is reported as inactive: -1.16%. In the case of `NC(=O)/C(=C\c1ccccc1)NC(=O)c1ccc(NC(=O)c2ccccc2)cc1`, the “activity, negative = inhibition” value is reported as inactive: 4.22%. With `O=c1[nH]c2ccccc2nc1C(Nc1ccccc1)c1ccccc1` (stereo not given) the Potency was inconclusive [inhibitor, single point]. With `O=C(Cn1c(=O)n(Cc2nc(-c3ccccc3)no2)c(=O)c2ccccc21)Nc1cccc(Cl)c1` the Potency was active: 28.2 µM. `COc1cccc(NC(=O)CSc2nc3ccccc3c(=O)n2Cc2cccs2)c1` was tested, and the Potency was inconclusive [inhibitor, partial curve]. With `COCCCNC(=O)c1ccc2c3c(onc13)-c1ccccc1C2=O` the Potency was inconclusive [inhibitor, single point]. For `COc1ccccc1NC(=O)CSc1ncnc2c1oc1ccccc12`, the Potency was inconclusive [inhibitor, single point]. `Cc1sc2ncnc(NCc3cccs3)c2c1C` was tested, and the “activity, negative = inhibition” value was inactive: 7.1%. `COc1ccccc1CN(Cc1cc2cc(C)ccc2[nH]c1=O)Cc1nnnn1CC1CCCO1` (stereo not given) was tested, and the Potency was inconclusive [inhibitor, single point]. For `COc1ccc(NC(=O)c2cccnc2Nc2ccc(OC)cc2)cc1`, the Potency was inconclusive [activator, single point]. With `CC(CCc1ccccc1)NC(=O)c1ccc2nc(N3CCOCC3)sc2c1` (stereo not given) the Potency was inconclusive [inhibitor, single point]. For `Clc1ccc(-c2csc(N/N=C/c3cccnc3)n2)c(Cl)c1`, the Potency was inconclusive [activator, partial curve, poor fit]. In the case of `O=C(NCc1ccco1)c1ccc2c(c1)N(Cc1ccc(Cl)cc1)C(=O)c1ccccc1S2(=O)=O`, the Potency is reported as inconclusive [inhibitor, partial curve]. `Cc1noc2ncnc(Sc3ccc(Br)cc3)c12` was tested, and the Potency was inconclusive [inhibitor, single point]. With `O=C(NCCc1ccccc1)c1ccc(Nc2nc3ccccc3n3nnnc23)cc1` the Potency was inconclusive [inhibitor, partial curve, poor fit]. `O=C(Nc1ccc(OC(F)(F)F)cc1)Nc1cccc([N+](=O)[O-])c1` was tested, and the Potency was active: 4.47 µM. For `COc1ccc(C2c3c(n(C)c4ccccc34)C(=O)N2CC(=O)Nc2cccc(Cl)c2)cc1` (stereo not given), the Potency was inconclusive [inhibitor, single point]. For `CCOC(=O)c1c(NC(=O)CSc2cn(CCNC(=O)c3ccc(OC)cc3)c3ccccc23)sc2c1CCCC2`, the Potency was inconclusive [inhibitor, partial curve, poor fit]. For `O=C(NCc1ccco1)c1ccc(F)c(S(=O)(=O)N2CCCCC2)c1`, the Potency was inconclusive [inhibitor, single point]. With `CCOC(=O)c1nc(Nc2ccc(C(=O)OC(C)C)cc2)c2ccccc2n1` the Potency was inconclusive [inhibitor, partial curve]. For `COc1ccc(-c2noc(CSc3nnc(C)n3-c3cccc(C)c3)n2)cc1`, the “activity, negative = inhibition” value was inactive: 5.53%. `COc1ccc(Cc2n[nH]c(=S)n2NC(=O)Nc2ccc(Cl)c(Cl)c2)cc1` was tested, and the Potency was inconclusive [inhibitor, partial curve, poor fit]. In the case of `Cc1ccc(S(=O)(=O)NCc2nc3ccccc3c(=O)n2N)cc1`, the Potency is reported as inconclusive [inhibitor, single point]. `C=CCSc1n[nH]c(-c2ccc(OCCCC)cc2)n1` was tested, and the Potency was inconclusive [inhibitor, partial curve, poor fit]. In the case of `O=C(CN1C(=O)CC(c2ccccc2)=Nc2ccccc21)Nc1ccc(Br)cc1`, the Potency is reported as inconclusive [inhibitor, partial curve]. `O=C(Nc1ccc(F)cc1)C1C2CCC3C(CCC21)C3(Cl)Cl` (stereo not given) was tested, and the “activity, negative = inhibition” value was inactive: -6.33%. In the case of `Cn1nnc2c(N3CCN(c4ccc(F)cc4)CC3)ncnc21`, the “activity, negative = inhibition” value is reported as inactive: -2.13%. In the case of `COc1ccc(C2=CSC3=C(C(=O)c4cccc(S(=O)(=O)N(C)C)c4)CCN23)cc1`, the Potency is reported as inconclusive [inhibitor, single point]. In the case of `O=C(c1ccccc1)c1c2c(cc3sc4ccccc4[n+]13)-c1cccc3cccc-2c13`, the Potency is reported as inconclusive [inhibitor, single point]. In the case of `Cc1cccc(S(=O)(=O)c2c(N)n(/N=C/c3cccnc3)c3nc4ccccc4nc23)c1`, the Potency is reported as inconclusive [inhibitor, full curve, poor fit]. In the case of `Cc1nc2ccccn2c1C(=O)OCC#N`, the “activity, negative = inhibition” value is reported as inactive: -1.27%. In the case of `Cc1c(CN2CCCCC2)c(O)n(CCCO)c(=O)c1C#N`, the Potency is reported as inconclusive [inhibitor, single point]. `CCOc1ccc(N(CC(=O)Nc2cccc(Cl)c2)S(=O)(=O)c2c(C)noc2C)cc1` was tested, and the Potency was inconclusive [inhibitor, partial curve]. With `Cc1ccc(Nc2sc(C(=O)c3ccccc3)c(N)c2S(=O)(=O)c2ccccc2)cc1Cl` the Potency was inconclusive [inhibitor, partial curve]. In the case of `CCCc1cc(=O)oc2cc(OCc3nn[nH]n3)ccc12`, the “activity, negative = inhibition” value is reported as inactive: 0.165%. `Cc1cc(C)nc(Sc2nc(Cl)nc(N(c3ccccc3)c3ccccc3)n2)n1` was tested, and the Potency was inconclusive [inhibitor, single point]. In the case of `CC1CCCN(CCCNC(=O)c2ccc3c(c2)N(Cc2ccc(Cl)cc2)C(=O)c2ccccc2S3(=O)=O)C1` (stereo not given), the “activity, negative = inhibition” value is reported as inactive: -13.5%. For `O=C(CSc1nccc(-c2cccs2)n1)Nc1cccc(Cl)c1Cl`, the Potency was inconclusive [inhibitor, partial curve, poor fit]. With `Cc1ccc2nc3sc(C(=O)N4CCCc5ccccc54)c(N)c3cc2c1` the Potency was inconclusive [activator, full curve]. For `CCOc1ccc(NC(=O)CSC(N)=O)cc1`, the Potency was inconclusive [inhibitor, single point]. `O=c1c2ccccc2nc(SCc2cccc(F)c2)n1-c1cccc(S(=O)(=O)N2CCCC2)c1` was tested, and the Potency was inconclusive [inhibitor, partial curve, poor fit]. In the case of `CCC(=O)Nc1ccc2nc(SCCOc3ccc(C)cc3OC)sc2c1`, the Potency is reported as inconclusive [inhibitor, partial curve]. With `CCc1nnc(NC(=O)CSc2ccc(-c3nc4ccccc4[nH]3)cn2)s1` the Potency was inconclusive [inhibitor, partial curve, poor fit]. In the case of `CCCC(=O)Nc1ccc2oc(-c3ccc(OC)c(Br)c3)nc2c1`, the Potency is reported as inconclusive [inhibitor, full curve]. For `S=c1[nH]ccn1-c1cccc(Cl)c1Cl`, the “activity, negative = inhibition” value was inactive: 0.579%. With `CCCCOc1ccc(C(=O)N2CCCCC2CCN2CCOCC2)cc1` (stereo not given) the Potency was inconclusive [inhibitor, partial curve]. For `COc1ccc(NC(=O)c2nnn(Cc3nc(-c4cc(OC)c(OC)c(OC)c4)oc3C)c2C)cc1Cl`, the “activity, negative = inhibition” value was inactive: 2.03%. `COc1ccccc1CNC(=O)c1ccc2[nH]c(C)c(C)c2c1` was tested, and the “activity, negative = inhibition” value was inactive: -0.231%. `COC(=O)[C@@H]1C[C@@]2(O)[C@H](O)[C@H](O)[C@H](O)C[C@H]2N1Cc1ccc(N2CCOCC2)cc1` was tested, and the “activity, negative = inhibition” value was inactive: 3.59%. `CCOC(=O)c1cccc(NC(=O)Cn2c(=O)c3cccn3c3ccccc32)c1` was tested, and the Potency was active: 12.6 µM. For `CC(C)Oc1ccc(/C=N/NC(=O)c2ccc(N(Cc3ccccc3)S(C)(=O)=O)cc2)cc1`, the Potency was inconclusive [inhibitor, single point]. In the case of `FC(F)(F)c1cccc(NC(=S)Nc2cccc(NC(=S)Nc3cccc(C(F)(F)F)c3)n2)c1`, the Potency is reported as active: 20 µM.

From PubChem BioAssay AID1468 (National Center for Advancing Translational Sciences (NCATS), 2008)
% is set by controls: 0 for no effect and ±100 for the full control effect; potency is the fitted concentration of half-maximal effect; tags give direction and shape of the fitted curve.
Note: nearly all actives have a fitted effect of over 55% in size.
